{
  "source": "the supplement of paper PMC3334620",
  "note": "Whole data set: some 33,000 sequences, median “E-score (-0.5 to 0.5)” near -0.043, cut for the highest 2% near 0.37. Some of the results follow.",
  "data": [
    {"target": "T1, Upc2 (UniProt Q12151)", "T1 sequence": "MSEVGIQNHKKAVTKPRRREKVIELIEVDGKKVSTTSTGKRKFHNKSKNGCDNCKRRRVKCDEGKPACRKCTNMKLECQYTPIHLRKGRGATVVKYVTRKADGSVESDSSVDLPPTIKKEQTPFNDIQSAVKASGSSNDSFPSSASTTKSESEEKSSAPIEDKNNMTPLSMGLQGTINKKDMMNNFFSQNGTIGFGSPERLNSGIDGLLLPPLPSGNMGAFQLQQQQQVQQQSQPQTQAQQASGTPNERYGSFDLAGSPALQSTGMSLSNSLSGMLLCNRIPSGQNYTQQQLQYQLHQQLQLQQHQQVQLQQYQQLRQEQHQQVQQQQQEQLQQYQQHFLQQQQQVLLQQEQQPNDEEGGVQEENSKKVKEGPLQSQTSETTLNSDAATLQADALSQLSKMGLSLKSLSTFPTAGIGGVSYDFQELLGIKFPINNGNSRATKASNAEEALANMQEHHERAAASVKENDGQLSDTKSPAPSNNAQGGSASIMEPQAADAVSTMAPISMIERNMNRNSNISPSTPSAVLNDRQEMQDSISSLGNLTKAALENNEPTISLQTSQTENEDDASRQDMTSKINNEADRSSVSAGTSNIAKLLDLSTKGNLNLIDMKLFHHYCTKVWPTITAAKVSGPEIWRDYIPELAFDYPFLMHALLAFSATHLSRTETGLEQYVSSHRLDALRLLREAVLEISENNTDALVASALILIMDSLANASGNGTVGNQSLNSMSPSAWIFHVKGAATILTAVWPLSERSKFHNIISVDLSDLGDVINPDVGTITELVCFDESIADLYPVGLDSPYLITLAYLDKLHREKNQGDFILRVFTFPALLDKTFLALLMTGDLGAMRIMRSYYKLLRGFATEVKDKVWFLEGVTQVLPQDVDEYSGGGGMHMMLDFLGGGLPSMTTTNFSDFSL", "assay": "PBM E-score (8-mer binding enrichment) (E-score (-0.5 to 0.5)); higher = stronger / more preferred TF binding; most listed sequences are background and not binding sites", "details": "protein concentration: 200 nM; construct: GST-full length", "outline": "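Masliner-normalised scans of fluorescent anti-GST signal were the basis for scoring. That signal came from GST-tagged yeast transcription factors applied at about 100-200 nM to double-stranded universal all-10-mer Agilent arrays on fresh or once-stripped slides. Each ungapped eight-base word, pooled with its reverse complement, received an E-score from the Universal PBM Analysis Suite.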", "values": [
      {"sequence": "GTGGCAAC", "PBM E-score": -0.113},
      {"sequence": "GAGATTGC", "PBM E-score": -0.163},
      {"sequence": "AGCGTAGC", "PBM E-score": 0.16},
      {"sequence": "GAGTATTA", "PBM E-score": -0.0722},
      {"sequence": "AATAGCGG", "PBM E-score": -0.0471},
      {"sequence": "CCTTCGTC", "PBM E-score": 0.00619},
      {"sequence": "CTCCGCCC", "PBM E-score": -0.316},
      {"sequence": "GCAGAGTA", "PBM E-score": 0.0783},
      {"sequence": "CAAACGGC", "PBM E-score": 0.32},
      {"sequence": "ATTGAAGG", "PBM E-score": -0.152},
      {"sequence": "CCTGTGAC", "PBM E-score": -0.255},
      {"sequence": "AAGCTGAC", "PBM E-score": -0.124},
      {"sequence": "CCGGCATC", "PBM E-score": -0.183},
      {"sequence": "AAATGCCG", "PBM E-score": 0.0855},
      {"sequence": "CCGAACCA", "PBM E-score": -0.127},
      {"sequence": "TCGGAGCA", "PBM E-score": -0.156},
      {"sequence": "AGCCCGCA", "PBM E-score": -0.231},
      {"sequence": "ACCTGAGA", "PBM E-score": -0.081},
      {"sequence": "CCCTCTAC", "PBM E-score": -0.0506},
      {"sequence": "AATGATTC", "PBM E-score": 0.096},
      {"sequence": "ACCGACCC", "PBM E-score": 0.114},
      {"sequence": "GAGCCCGA", "PBM E-score": -0.0298},
      {"sequence": "ACCGCAGT", "PBM E-score": -0.0959},
      {"sequence": "AAAAGGAC", "PBM E-score": 0.0288},
      {"sequence": "AACCACTG", "PBM E-score": -0.132},
      {"sequence": "CTTACAAG", "PBM E-score": -0.132},
      {"sequence": "AAATTTGA", "PBM E-score": 0.14},
      {"sequence": "ACATACCT", "PBM E-score": -0.261},
      {"sequence": "GCGATTCC", "PBM E-score": -0.06},
      {"sequence": "GTACTGAC", "PBM E-score": 0.0353},
      {"sequence": "CGATCTTC", "PBM E-score": 0.11},
      {"sequence": "AACTACGG", "PBM E-score": -0.0928},
      {"sequence": "CCCCGTTA", "PBM E-score": 0.0309},
      {"sequence": "AACGCTCT", "PBM E-score": -0.0502},
      {"sequence": "AGGAGGTC", "PBM E-score": -0.226},
      {"sequence": "CAGCCCAG", "PBM E-score": -0.241},
      {"sequence": "CGGATCCG", "PBM E-score": 0.128},
      {"sequence": "GGCCCTAA", "PBM E-score": -0.205},
      {"sequence": "TATAGGGA", "PBM E-score": 0.0831},
      {"sequence": "CAGAGTCA", "PBM E-score": -0.175},
      {"sequence": "TATTCCCA", "PBM E-score": -0.0702},
      {"sequence": "AGATGGTC", "PBM E-score": -0.225},
      {"sequence": "GAGACTAA", "PBM E-score": 0.0507},
      {"sequence": "CGGGCAGC", "PBM E-score": -0.0543},
      {"sequence": "CACCCGCG", "PBM E-score": -0.107},
      {"sequence": "AGCCGTTA", "PBM E-score": 0.171},
      {"sequence": "GCGGGTCA", "PBM E-score": -0.0247},
      {"sequence": "CTAGTCAG", "PBM E-score": -0.0433},
      {"sequence": "GCCGCGGA", "PBM E-score": -0.169},
      {"sequence": "GCAGCCGC", "PBM E-score": -0.122},
      {"sequence": "CTAAATTA", "PBM E-score": 0.0394},
      {"sequence": "GGTCGCCA", "PBM E-score": -0.188},
      {"sequence": "GCTTGGAC", "PBM E-score": -0.259},
      {"sequence": "AGTAGCGC", "PBM E-score": 0.0189},
      {"sequence": "AAAACTTG", "PBM E-score": 0.00797},
      {"sequence": "CACGGGAC", "PBM E-score": -0.074},
      {"sequence": "GCCCAAGC", "PBM E-score": -0.184},
      {"sequence": "AATGCGAC", "PBM E-score": 0.214},
      {"sequence": "CTCCCTTA", "PBM E-score": -0.197},
      {"sequence": "CCCATGTC", "PBM E-score": -0.212},
      {"sequence": "CCATCCTA", "PBM E-score": 0.108},
      {"sequence": "CGGGCCAC", "PBM E-score": -0.201},
      {"sequence": "TAGAATCA", "PBM E-score": 0.0403},
      {"sequence": "ATTAACCC", "PBM E-score": -0.00395},
      {"sequence": "ACTAGTGA", "PBM E-score": -0.178},
      {"sequence": "CTAAGCAC", "PBM E-score": -0.145},
      {"sequence": "GACTAGGC", "PBM E-score": 0.0484},
      {"sequence": "CCCAATGA", "PBM E-score": -0.32},
      {"sequence": "AAGGTGCT", "PBM E-score": -0.233},
      {"sequence": "TCGAAAGA", "PBM E-score": -0.0485},
      {"sequence": "GGATCTAC", "PBM E-score": -0.211},
      {"sequence": "ATACAAGA", "PBM E-score": -0.0788},
      {"sequence": "AACTGACC", "PBM E-score": -0.252},
      {"sequence": "CGATGTAA", "PBM E-score": 0.211},
      {"sequence": "CTCCATCC", "PBM E-score": -0.183},
      {"sequence": "GGTATGGA", "PBM E-score": -0.146},
      {"sequence": "AACAACCA", "PBM E-score": 0.0154},
      {"sequence": "ACGCGTAG", "PBM E-score": 0.148},
      {"sequence": "CATCACGG", "PBM E-score": 0.0314},
      {"sequence": "AATTGGTG", "PBM E-score": 0.0032},
      {"sequence": "GCGTCCAC", "PBM E-score": -0.206},
      {"sequence": "ACGGCGTC", "PBM E-score": 0.0942},
      {"sequence": "CGTATAAC", "PBM E-score": 0.478},
      {"sequence": "GCTTAAAA", "PBM E-score": 0.11},
      {"sequence": "CATTTCCA", "PBM E-score": -0.0799},
      {"sequence": "ATACTGCC", "PBM E-score": -0.0146}
    ]}
  ]
}
